This is one part of the list. Values were computed here from the reads of four pooled replicates and scatter widely.

The target in the test is T1, Pho4 (S. cerevisiae) (UniProt P07270).
T1 sequence: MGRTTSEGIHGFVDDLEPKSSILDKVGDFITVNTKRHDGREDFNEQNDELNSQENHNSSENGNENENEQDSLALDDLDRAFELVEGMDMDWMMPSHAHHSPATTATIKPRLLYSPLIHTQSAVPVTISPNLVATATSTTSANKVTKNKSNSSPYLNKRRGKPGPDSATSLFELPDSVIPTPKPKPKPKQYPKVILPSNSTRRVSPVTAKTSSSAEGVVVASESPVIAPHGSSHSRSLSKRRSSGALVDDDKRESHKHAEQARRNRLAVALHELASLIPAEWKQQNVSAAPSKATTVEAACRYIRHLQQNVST
The test can be described thus: relative binding free energy (BET-seq); higher = weaker binding. The conditions noted are these: reference: library average.
On to TTAGGCACGTGCCGTT, for which the “relative binding free energy” value is -0.11 kcal/mol. With TTGGACACGTGATGGT, the “relative binding free energy” value came out at 0.3 kcal/mol. The same measure for AACGGCACGTGGATGT: -0.06 kcal/mol; for ATTGGCACGTGGCAAG: -0.28 kcal/mol; for CGGACCACGTGGGTGG: -0.09 kcal/mol. In the case of ATGTACACGTGTCGGG, the “relative binding free energy” value turned out to be 0.1 kcal/mol. Consider TGAGGCACGTGCAGTA, for which the “relative binding free energy” value was -0.18 kcal/mol. As for TAGAACACGTGAGATG, the figure is 0.34 kcal/mol; as for TGTGGCACGTGGCAGT, -0.27 kcal/mol; as for TGGATCACGTGGTTGG, 0.22 kcal/mol.

Take TTGAGCACGTGAAATG: the “relative binding free energy” value worked out at 0.35 kcal/mol. GGATTCACGTGAGTGC: the “relative binding free energy” value was 0.54 kcal/mol. As for AGTGGCACGTGTGCAG, the “relative binding free energy” value is -0.19 kcal/mol. As to ATTTGCACGTGTGATG, the “relative binding free energy” value amounted to 0.04 kcal/mol. In the case of GATGACACGTGGTTAA, the “relative binding free energy” value came to 0.1 kcal/mol. With GCGTGCACGTGGGTGT, the “relative binding free energy” value is -0.1 kcal/mol. Consider GAGGCCACGTGTTAGG, for which the “relative binding free energy” value was 0.01 kcal/mol.

Turning to ATGGGCACGTGACGCG, the “relative binding free energy” value was determined as 0.02 kcal/mol. On to TGAAACACGTGTTAGG, for which the “relative binding free energy” value came out at 0.01 kcal/mol. Consider CATTGCACGTGAGGTC, for which the “relative binding free energy” value was determined as 0.28 kcal/mol. In the case of AGTTTCACGTGAAGTG, the “relative binding free energy” value was determined as 0.31 kcal/mol. AGGTGCACGTGCTTGT: the “relative binding free energy” value was -0.11 kcal/mol. With TTTGGCACGTGGTGGC, the “relative binding free energy” value is -0.17 kcal/mol. For the sequence CTTTACACGTGGTGGT, the “relative binding free energy” value is -0.01 kcal/mol.

In the case of AGGTGCACGTGACTGT, the “relative binding free energy” value was determined as 0.09 kcal/mol. Regarding AGGTCCACGTGAGGCG, the “relative binding free energy” value worked out at 0.22 kcal/mol. Regarding TGTAGCACGTGTACTG, the “relative binding free energy” value is -0.18 kcal/mol.

Take CATGTCACGTGTTGCT: the “relative binding free energy” value came out at 0.1 kcal/mol. As to GCTCTCACGTGGTGGT, the “relative binding free energy” value was 0.13 kcal/mol. With ATGGGCACGTGGTTAT, the “relative binding free energy” value was -0.08 kcal/mol.

In the case of GGTTTCACGTGTTAAT, the “relative binding free energy” value is 0.3 kcal/mol. The same measure for GGAGGCACGTGGGTGA: -0.2 kcal/mol.

Consider TCGAGCACGTGGGGCG, for which the “relative binding free energy” value was -0.18 kcal/mol. On to GGTATCACGTGGAATA, for which the “relative binding free energy” value is 0.36 kcal/mol. On to CGTTTCACGTGGTAGC, for which the “relative binding free energy” value is 0.32 kcal/mol. As for GGGGACACGTGTGCTT, the figure is 0.04 kcal/mol. Turning to TATGGCACGTGGTCAA, the “relative binding free energy” value is -0.22 kcal/mol.

In the case of AGGTGCACGTGAGAGC, the “relative binding free energy” value amounted to 0.14 kcal/mol. As for AGGTGCACGTGTGCTT, the “relative binding free energy” value was -0.15 kcal/mol.

As for GTATTCACGTGGGATT, the “relative binding free energy” value was 0.27 kcal/mol. For TGCTGCACGTGGGATG, the “relative binding free energy” value is -0.1 kcal/mol. As to CGTGTCACGTGACAGT, the “relative binding free energy” value worked out at 0.22 kcal/mol.

For the sequence GGTATCACGTGGACTG, the “relative binding free energy” value is 0.18 kcal/mol. In the case of CTGCGCACGTGATTGG, the “relative binding free energy” value is 0.04 kcal/mol. As to TAAATCACGTGGTAAG, the “relative binding free energy” value was determined as 0.02 kcal/mol.

Turning to TTAAGCACGTGTCGTG, the “relative binding free energy” value is -0.14 kcal/mol. The same measure for GTTGTCACGTGGATTG: 0.17 kcal/mol; for TTTTGCACGTGCGGGA: -0.1 kcal/mol.

With GGATTCACGTGACTAG, the “relative binding free energy” value worked out at 0.57 kcal/mol. As for TGATTCACGTGTTGGT, the figure is 0.36 kcal/mol; as for CGGGGCACGTGTATTG, -0.02 kcal/mol.

For the sequence GGGCTCACGTGGGCGC, the “relative binding free energy” value amounted to 0.22 kcal/mol. TCGGTCACGTGGTTGG: the “relative binding free energy” value was 0.11 kcal/mol. The same measure for CCGTTCACGTGGGGGT: 0.11 kcal/mol; for GAGTTCACGTGGGTAA: 0.25 kcal/mol. Regarding AGGCACACGTGGGTTT, the “relative binding free energy” value is -0.1 kcal/mol. The same measure for GTATTCACGTGGTCAT: 0.19 kcal/mol; for GGCATCACGTGGGTGG: 0.06 kcal/mol. GTTTCCACGTGGAGGT: the “relative binding free energy” value stood at 0.04 kcal/mol. Regarding TTTATCACGTGATTGC, the “relative binding free energy” value is 0.43 kcal/mol.

In the case of GTATGCACGTGAGATA, the “relative binding free energy” value came to 0.14 kcal/mol. Turning to TTTTACACGTGATGTA, the “relative binding free energy” value came to 0.23 kcal/mol.

As to GCTGTCACGTGATCGG, the “relative binding free energy” value amounted to 0.25 kcal/mol. As for TGTCGCACGTGATTGG, the figure is -0.01 kcal/mol; as for GGATACACGTGGTTAG, 0.11 kcal/mol; as for GGGTTCACGTGGTTGA, 0.32 kcal/mol.

As to TTCTGCACGTGAGGTT, the “relative binding free energy” value is 0.29 kcal/mol. Regarding TGTTGCACGTGAATAT, the “relative binding free energy” value turned out to be 0.38 kcal/mol.

Take TGGACCACGTGGGGGG: the “relative binding free energy” value is -0.19 kcal/mol. In the case of GAATTCACGTGATGGC, the “relative binding free energy” value turned out to be 0.51 kcal/mol.

Turning to AGAATCACGTGATTGG, the “relative binding free energy” value amounted to 0.24 kcal/mol. For the sequence TAGCTCACGTGTTAGG, the “relative binding free energy” value was 0.21 kcal/mol.

GTGTGCACGTGGAAGG: the “relative binding free energy” value worked out at 0.04 kcal/mol. With AATGCCACGTGGGGGG, the “relative binding free energy” value is -0.22 kcal/mol.

As to AAGGTCACGTGGTGTG, the “relative binding free energy” value was -0.01 kcal/mol. Take CAATTCACGTGGTGTG: the “relative binding free energy” value was found to be 0.14 kcal/mol.

Consider AGGAACACGTGGGATT, for which the “relative binding free energy” value was -0.05 kcal/mol. As for GCGTACACGTGCGTGG, the “relative binding free energy” value came out at 0 kcal/mol. As for ATAGACACGTGTGCTG, the figure is 0.04 kcal/mol; as for AGGCGCACGTGGGGTC, -0.13 kcal/mol. As for GTGATCACGTGAGGAA, the “relative binding free energy” value turned out to be 0.46 kcal/mol. The same measure for ATTGTCACGTGGTAAC: 0.01 kcal/mol; for GGTTGCACGTGTGTAT: 0.14 kcal/mol. Regarding GGGCTCACGTGTCTTG, the “relative binding free energy” value was 0.39 kcal/mol. As to TAGGTCACGTGTTGAG, the “relative binding free energy” value was determined as 0.06 kcal/mol. As to GAGGACACGTGTAAGG, the “relative binding free energy” value was 0.26 kcal/mol. With AATGGCACGTGTCATG, the “relative binding free energy” value is -0.11 kcal/mol. With AAATGCACGTGGATTT, the “relative binding free energy” value was -0.02 kcal/mol.

Consider CTGAGCACGTGATTGT, for which the “relative binding free energy” value turned out to be 0.05 kcal/mol. Take ACGTGCACGTGTTATG: the “relative binding free energy” value is -0.12 kcal/mol. Consider GACATCACGTGTTAGT, for which the “relative binding free energy” value is 0.28 kcal/mol.

ACGGGCACGTGTGGTC: the “relative binding free energy” value is -0.05 kcal/mol. Regarding ATTAGCACGTGAAATT, the “relative binding free energy” value worked out at 0.17 kcal/mol. The same measure for TGTAACACGTGTTTAA: -0.04 kcal/mol; for TAGGGCACGTGGTCTT: -0.19 kcal/mol; for TGGTACACGTGAATCG: 0.41 kcal/mol.

In the case of TTCGTCACGTGGTGCT, the “relative binding free energy” value was -0.04 kcal/mol. The same measure for AAGGGCACGTGCTAGT: -0.18 kcal/mol; for TATATCACGTGTGACT: 0.16 kcal/mol. Take TGTTTCACGTGCGGCG: the “relative binding free energy” value amounted to 0.24 kcal/mol.

Take TTTTGCACGTGTAACT: the “relative binding free energy” value was 0.17 kcal/mol. With TGATACACGTGCGTTG, the “relative binding free energy” value is -0.09 kcal/mol. For the sequence GGGTTCACGTGGGTGA, the “relative binding free energy” value stood at 0.24 kcal/mol. TGCGGCACGTGGGGAG: the “relative binding free energy” value is -0.19 kcal/mol. For GTTGCCACGTGAGGGT, the “relative binding free energy” value came to 0.06 kcal/mol.

For the sequence AAAGTCACGTGGGGCA, the “relative binding free energy” value was -0.09 kcal/mol.

For the sequence ATGCACACGTGTTAGT, the “relative binding free energy” value was -0.06 kcal/mol. In the case of TAACTCACGTGTGTTT, the “relative binding free energy” value came out at 0.21 kcal/mol.

In the case of ACGGTCACGTGGTCGT, the “relative binding free energy” value was -0.07 kcal/mol. Turning to TGTAACACGTGAGTTT, the “relative binding free energy” value is 0.27 kcal/mol. As for AGGCTCACGTGAATGT, the “relative binding free energy” value worked out at 0.35 kcal/mol. The same measure for CTTGTCACGTGATTTT: 0.23 kcal/mol; for ATGAGCACGTGAATTT: 0.29 kcal/mol. GGTAACACGTGGGATA: the “relative binding free energy” value was -0.2 kcal/mol.

Consider TGTTGCACGTGGTTCG, for which the “relative binding free energy” value is -0.15 kcal/mol.
